In PubChem BioAssay AID686978 (National Center for Advancing Translational Sciences (NCATS), 2013):
In all, about 420,000 compounds went through this assay and about 64,000 (15%) were called active. This list was built around the results that the source calls inconclusive (neither active nor inactive); the mix of calls is not that of the screen. Calls come from the whole dose curve; as a rule, active = well fitted inhibition curve with a large enough effect; inconclusive = small, poorly fitted or top-dose-only effect; inactive = flat fitted curve, though single readings scatter. No potency is given beside an inconclusive call; the fits are too rough.

experiment: qHTS for Inhibitors of human tyrosyl-DNA phosphodiesterase 1 (TDP1): qHTS in cells in absence of CPT; conditions: DT40 Tdp1-/- hTDP1 cells, no CPT, ATP luminescence, 48 h; activity change, negative = growth inhibition: at 46.2 µM (top of the series) unless noted; note: nearly all actives have a fitted effect of over 55% in size
Outline: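 Growth of hTDP1-complemented DT40 Tdp1-knockout cells is measured by ATP luminescence after at least 48 hr compound exposure at 37 °C, with DMSO substituting for the 20 nM CPT used in the parallel screen.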
% is set by controls: 0 for no effect and ±100 for the full control effect; potency is the fitted concentration of half-maximal effect; tags give direction and shape of the fitted curve.

Structure (SMILES)	Potency	activity change, negative = growth inhibition
COCCCNC(=S)Nc1cccc2ncccc12	inconclusive [inhibitor, single point]	
COc1ccc(OCc2nn3c(-c4cccc(OC)c4)nnc3s2)cc1		inactive: -20.6%
CC(C)c1ccc(Nc2c(-c3ccccc3O)nc3cnccn23)cc1	active: 20.6 µM	
CS(=O)(=O)N(CC(=O)N1CCN(c2ccccc2F)CC1)c1cccc(C(F)(F)F)c1	inconclusive [inhibitor, partial curve]	
C=CCc1cccc2cc(C(=O)N3CCN(c4ccccn4)CC3)c(=O)oc12		inactive: -19.4%
Cc1cc(N2CCC(C)CC2)nc2ccc(NC(=O)/C=C/c3cccc(Cl)c3)cc12	active: 4.11 µM	
COc1ccc(CC(=O)Nc2nc3ccccc3[nH]2)cc1	inconclusive [inhibitor, full curve]	
O=C1CNC(=S)N1Cc1ccc(Cl)cc1		inactive: -2.83%
CCOc1ccc(-c2c(C)nn3c(C)c(C(=O)NCc4ccc(C)o4)cnc23)cc1OCC	inconclusive [inhibitor, full curve]	
COc1ccc(/C=N/NC(=S)Nc2cc(C(F)(F)F)ccc2Cl)cc1	inconclusive [inhibitor, partial curve]	
Cc1cccc2c1NC(=O)/C2=C\C(=O)c1cccs1	active: 4.61 µM	
O=C(NCCc1ccc(Cl)cc1)c1ccc(CS(=O)(=O)Cc2ccccc2F)o1	active: 20.6 µM	
Cc1ccc(NC(=O)CCCc2nc3ccccc3c(=O)[nH]2)c(Cl)c1	active: 14.6 µM	
Cn1c(Oc2ccc(F)cc2)nc2c1c(=O)n(Cc1ccccc1Cl)c(=O)n2C	active: 11.6 µM	
Cn1nc(OC(=O)Nc2cccc(Cl)c2)cc1C(F)(F)F	inconclusive [inhibitor, single point]	
C=C(C)CSc1nnc(CCCCCNC(=O)OC(C)(C)C)o1	inconclusive [inhibitor, single point]	
CCOC(=O)C1CCCN(Cc2ccc(OCC)cc2)C1 (centres undefined)		inactive: -14.6%
COc1ccc(CCC(=O)Nc2ccc(Cl)c(S(=O)(=O)N3CCOCC3)c2)cc1OC	inconclusive [inhibitor, single point]	
CSc1ccc(CNC(=O)c2cc3c(=O)n(Cc4ccco4)ccc3nc2C)cc1	active: 23.1 µM	
CC(C)c1ccc(NC2CCCN(C(=O)CCN3CCOCC3)C2)cc1 (centres undefined)		inactive: -2.25%
O=C(O)CCC(=O)N1CCN(c2ncccn2)CC1		inactive: -1.18%
CCN(CC)c1ccc(C=Nc2cc(C)cc(C)c2)c(O)c1	inconclusive [inhibitor, partial curve]	
O=S(=O)(CCN1CCCCC1)Oc1ccc(Cl)cc1Cl		inactive: 9.33%
Cc1sc(N/N=C/c2cccs2)nc1-c1ccccc1	active: 18.4 µM	
N#Cc1cccc(C(=O)C(=O)N2CCC(c3ccccc3)CC2)c1	inconclusive [inhibitor, single point]	

Structure (SMILES)	Potency	activity change, negative = growth inhibition
Cc1cc(C)[n+]2[nH]c(N)c(N=Nc3ccccc3)c2n1	active: 16.4 µM	
COc1ccccc1NC(=O)c1c(NC(=O)c2ccccc2F)sc2c1CCC2		inactive: -0.586%
O=C(c1noc2c1CCCC2)N1CCc2c([nH]c3ccccc23)C1c1ccccn1 (centres undefined)	inconclusive [inhibitor, single point]	
O=S(=O)(Cc1ccc(Cl)cc1)c1ccccc1-c1nnc(-c2ccc(Cl)cc2)o1	inconclusive [inhibitor, partial curve]	
O=S(=O)(CCc1ccncc1)Cc1ccc2c3c(cccc13)CC2	inconclusive [inhibitor, single point]	
COc1nc(Nc2ccc(C(C)C)cc2)nc(OC)n1	inconclusive [inhibitor, single point]	
CCc1nnc(NS(=O)(=O)c2ccc(N/C=C\C(=O)c3ccc(C)cc3)cc2)s1		inactive: 7.96%
O=C(Nc1ccc(-n2cc(Br)cn2)cc1)c1ccncc1		inactive: -26.5%
CC(C)c1ccc(-c2csc3nc[nH]c(=O)c23)cc1	inconclusive [inhibitor, partial curve]	
O=C(/C=C/c1cccc(Cl)c1)NCc1ccccc1		inactive: -4.99%
COc1ccc(NC(=O)CSc2nnc(C3CC3)n2C)cc1S(=O)(=O)N1CCOCC1		inactive: -0.139%
COc1cccc(-c2nc3cc(SC)ccc3cc2CN(C(=O)c2csc(C)n2)C2CC2)c1	inconclusive [inhibitor, single point]	
CC(C)N(C(=O)CSc1nc2ccccc2n1Cc1ccccc1F)C(C)C	active: 16.4 µM	
O=C(Nc1ccc(C(F)(F)F)cc1)c1cc(S(=O)(=O)NCC2COc3ccccc3O2)ccc1F (centres undefined)	inconclusive [inhibitor, single point]	
CC1C(=O)N2CCCc3cc(S(=O)(=O)N(C)Cc4ccccc4)cc1c32 (centres undefined)	inconclusive [inhibitor, single point]	
CCOC(=O)c1sc(SC)c(C(C)=O)c1C		inactive: -6.96%
Cc1ccc(-c2cc(C(=O)NCc3ccccc3)c3c(-c4ccc(C)cc4)[nH]nc3n2)cc1		inactive: 8.9%
CCO[C@@H]1OC(C(=O)NCc2ccccc2)=C[C@H](c2csc3ccccc23)[C@H]1CCCO	inconclusive [inhibitor, single point]	
COc1ccc(OC)c(/C=N/NC(=O)C(=O)N2CCCCCC2)c1		inactive: -14%
CCCN(CCC)c1nc(N)nc(-c2cc(Cl)ccc2OC)n1	inconclusive [inhibitor, partial curve, poor fit]	
COc1ccc(NC(=O)c2ccccc2OCc2ccc(F)cc2)c(OC)c1	inconclusive [inhibitor, single point]	
Cc1ccc(S(=O)(=O)N2C[C@]3(O)C[C@@H]4C(=O)N(c5ccccc5)C(=O)[C@@H]4C[C@]3(OC(=O)NC3CC3)C2)cc1	inconclusive [inhibitor, single point]	
CCC1(CC)C(=O)N(C)C(=O)NC1=Nc1ccc(OC)cc1		inactive: 2.1%
OCC1(Cc2ccccc2C(F)(F)F)CCN(Cc2ccccc2)CC1	inconclusive [inhibitor, single point]	
